{
  "source": "PubChem BioAssay AID1347073",
  "about": "(National Center for Advancing Translational Sciences (NCATS), 2019)",
  "note": "Screen size: about 45,000 compounds; about 200 (0.44%) were called active. Not shown: some 7% with an inconclusive outcome. Calls come from the whole dose curve; as a rule, active = well fitted activation curve with a large enough effect; inconclusive = small, poorly fitted or top-dose-only effect; inactive = no such curve, though single readings can be large or run the other way. Some of the results follow.",
  "data": [
    {"assay": "qHTS of TDP-43 Inhibitors: NCGC Sytravon Library Screen; note: 0% is about no effect; nearly all actives have a fitted effect of over 55% in size", "conditions": "yeast TDP-43 toxicity rescue, BacTiter-Glo growth, 24 h; series mostly up to 46.1 µM; growth rescue (activation): at the top concentration", "how_it_was_run": "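TDP-43-expressing yeast, pregrown in raffinose, seeded at OD600 0.02 in galactose medium with compound for 24 hr at 30 deg C. Growth read by BacTiter-Glo luminescence, so rescue of toxicity appears as activation.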", "values": [
      {"smiles": "Cc1ccccc1NC(=O)C(=O)NCCCN1CCOCC1", "growth rescue (activation)": "inactive: 1.79%"},
      {"smiles": "COc1ccc(-c2cc(C(=O)Nc3cccnc3Cl)no2)cc1OC", "growth rescue (activation)": "inactive: -6.44%"},
      {"smiles": "C/C(CC(=O)Nc1cc(C)ccn1)=N\\NC(=O)c1cccc(F)c1", "growth rescue (activation)": "inactive: -9.95%"},
      {"smiles": "S=C(Nc1cccnc1)NC1CCCC1", "growth rescue (activation)": "inactive: 2.68%"},
      {"smiles": "Cc1c(CC(=O)NCCC(=O)O)c(=O)oc2cc3occ(-c4ccccc4)c3cc12", "growth rescue (activation)": "inactive: 10.5%"},
      {"smiles": "C=CCOc1ccc(/C=N/N2C(=O)C(CC(=O)Nc3ccc(F)cc3F)SC2=NC)cc1", "note": "(centres undefined)", "growth rescue (activation)": "inactive: 29.2%"},
      {"smiles": "CN(C)/C=N/C(=S)Nc1ccc(Br)cc1F", "growth rescue (activation)": "inactive: 28%"},
      {"smiles": "COc1ccc(S(=O)(=O)N2CCc3ccccc32)cc1C(=O)NCc1ccco1", "growth rescue (activation)": "inactive: 7.25%"},
      {"smiles": "O=c1[nH]c(C2CCCN(S(=O)(=O)c3ccccc3)C2)nc2c1nnn2Cc1cccc(Cl)c1", "note": "(centres undefined)", "growth rescue (activation)": "inactive: -6.67%"},
      {"smiles": "CC(=O)Nc1ccccc1C(=O)N1CCN(Cc2ccccc2)CC1", "growth rescue (activation)": "inactive: -4.79%"},
      {"smiles": "CC1(C(=O)OCC(=O)Nc2ccccc2Cl)CC1(Cl)Cl", "note": "(centres undefined)", "growth rescue (activation)": "inactive: 6.01%"},
      {"smiles": "CCOc1cc(NC(=S)NCc2ccco2)c(OCC)cc1NC(=O)c1ccco1", "growth rescue (activation)": "inactive: 14.2%"},
      {"smiles": "COC(=O)C1C(c2ccccc2)NC(=O)NC1(O)C(F)(F)Cl", "note": "(centres undefined)", "growth rescue (activation)": "inactive: 7.05%"},
      {"smiles": "O=C(CN1C2CCCC1CC(NC(=O)C1CCCCC1)C2)Nc1ccccc1", "note": "(centres undefined)", "growth rescue (activation)": "inactive: 3.14%"},
      {"smiles": "O=C(NCc1cccs1)C1CCN(S(=O)(=O)c2cccc([N+](=O)[O-])c2)CC1", "growth rescue (activation)": "inactive: 6.17%"},
      {"smiles": "Cc1nc2c(C(=O)NCc3ccccc3)c[nH]n2c(=O)c1Cc1ccccc1Cl", "growth rescue (activation)": "inactive: -2.65%"},
      {"smiles": "CC(C)Nc1nnc(SCC(=O)/C=C2\\N(C)c3ccccc3C2(C)C)s1", "growth rescue (activation)": "inactive: 26%"},
      {"smiles": "Cc1ccc(Nc2ccc(C(N)=O)cc2[N+](=O)[O-])cc1", "growth rescue (activation)": "inactive: -18.2%"},
      {"smiles": "O=C(CN1C2=NCCCN2c2ccccc21)c1cccc(Br)c1", "growth rescue (activation)": "inactive: 0.808%"},
      {"smiles": "O=c1[nH]c(CSc2ncc(C(F)(F)F)cc2Cl)nc2cc(C(F)(F)F)ccc12", "growth rescue (activation)": "inactive: 33.6%"},
      {"smiles": "CN(C)Cc1ncccc1Oc1nc2cc(-c3cccc(Cl)c3)sc2c(=O)n1C", "growth rescue (activation)": "inactive: 20.1%"},
      {"smiles": "COc1ccc(NS(=O)(=O)c2cc(NC(=O)[C@H](C)NC(N)=O)ccc2N2CCCC2)cc1", "growth rescue (activation)": "inactive: 15.2%"},
      {"smiles": "c1ccc(NCc2ccccn2)cc1", "growth rescue (activation)": "inactive: -8.87%"},
      {"smiles": "CCCCSc1nc2ccccc2[nH]1", "growth rescue (activation)": "inactive: 2.36%"},
      {"smiles": "Cc1c(-c2ccc(Cl)cc2)[n+](=O)c2c(n1[O-])CCCC2", "growth rescue (activation)": "inactive: -16.8%"},
      {"smiles": "O=C(NCCN1CCNC1=O)c1ccc2sc([C@H]3C[C@H](O)[C@@H](CO)O3)nc2c1", "growth rescue (activation)": "inactive: 2.14%"},
      {"smiles": "c1cc(CN2CCN(C3CCCCCC3)CC2)ccn1", "growth rescue (activation)": "inactive: -10.6%"},
      {"smiles": "O=S(=O)(c1ccc(F)cc1)N1CCN(C(=S)NCc2ccco2)CC1", "growth rescue (activation)": "inactive: -6.85%"},
      {"smiles": "O=C(COC(=O)C1CCCCC1)NCCc1ccccc1", "growth rescue (activation)": "inactive: 13.7%"},
      {"smiles": "COC(=O)C(C)(C)ONC(=O)Nc1ccccc1[N+](=O)[O-]", "growth rescue (activation)": "inactive: 24.4%"},
      {"smiles": "CC(C)c1ccc(NC2CCCN(C(=O)CCN3CCCC3=O)C2)cc1", "note": "(centres undefined)", "growth rescue (activation)": "inactive: 3.3%"},
      {"smiles": "COc1cc(OC)c(OC)cc1/C=C1\\CCC/C(=C\\c2cc(OC)c(OC)cc2OC)C1=O", "growth rescue (activation)": "inactive: 9.79%"},
      {"smiles": "CCn1c(SCC(=O)N2c3ccccc3CCc3ccccc32)nnc1-c1ccc(OC)cc1", "growth rescue (activation)": "inactive: 1.04%"},
      {"smiles": "CCOC(=O)c1ccccc1NC(=O)c1cncc(Br)c1", "growth rescue (activation)": "inactive: 36.6%"},
      {"smiles": "COc1ccc(Cc2nnc(NS(=O)(=O)c3ccc(Cl)cc3)s2)cc1OC", "growth rescue (activation)": "inactive: 4.82%"},
      {"smiles": "CC(=O)Nc1sc(-c2ccc(Cl)cc2)nc1-c1ccccc1", "growth rescue (activation)": "inactive: 0.536%"},
      {"smiles": "COc1ccc(-c2nc3ccc(N4CCCC4)cc3c(=O)[nH]2)cc1OC", "growth rescue (activation)": "inactive: 21.2%"},
      {"smiles": "CCOc1ccccc1-c1cc(-c2ccc(OC)cc2)nc2c1c(=O)n(C)c(=O)n2C", "growth rescue (activation)": "inactive: -5.26%"},
      {"smiles": "O=C(C(=O)N1CCOCC1)c1c[nH]c2ccccc12", "growth rescue (activation)": "inactive: 5.56%"},
      {"smiles": "O=C(O)C1CC=CCC1C(=O)NC1CCCCC1", "note": "(centres undefined)", "growth rescue (activation)": "inactive: 10.8%"},
      {"smiles": "Cc1cc(CNC(=O)COc2cc(F)ccc2[N+](=O)[O-])c2ccccc2n1", "growth rescue (activation)": "inactive: 10.5%"},
      {"smiles": "CC1CN(C(=O)C(Sc2ccccc2)c2ccccc2)CC(C)O1", "note": "(centres undefined)", "growth rescue (activation)": "inactive: 4.83%"},
      {"smiles": "COC(=O)c1ccc(COc2cccnc2[N+](=O)[O-])cc1", "growth rescue (activation)": "inactive: 22.9%"},
      {"smiles": "CC1(C)CC(N2CCN(Cc3ccccc3)CC2)=CC(=[N+]2CCCCC2)C1", "growth rescue (activation)": "inactive: -19.3%"},
      {"smiles": "COc1cccc(CNC(=O)C2CCC(=O)N(CC3CCCCC3)C2)c1OC", "note": "(centres undefined)", "growth rescue (activation)": "inactive: -7.72%"},
      {"smiles": "NC(=O)c1ccc(NC(=O)COC(=O)CC23CC4CC(CC(Br)(C4)C2)C3)cc1", "growth rescue (activation)": "inactive: -26.3%"},
      {"smiles": "O=C(CCc1nnc(C2CCCCC2)o1)N1CCC(Oc2cccnc2)CC1", "growth rescue (activation)": "inactive: 0.829%"},
      {"smiles": "COc1ccc(S(=O)(=O)NCC(=O)Nc2cccc(C)c2C)cc1OC", "growth rescue (activation)": "inactive: 4.58%"},
      {"smiles": "Cn1nc(-c2ccc(C(=O)NCCO)cc2)c2ccccc2c1=O", "growth rescue (activation)": "inactive: -18.8%"},
      {"smiles": "Cc1nnc(SCc2cc(=O)oc3cc(O)ccc23)n1Cc1ccccc1", "growth rescue (activation)": "inactive: 7.12%"},
      {"smiles": "O=C(COC(=O)/C=C/c1ccc(F)cc1)NCc1ccco1", "growth rescue (activation)": "inactive: 25.6%"},
      {"smiles": "CCOc1ccccc1NC(=O)CSc1c(C)n[nH]c1C", "growth rescue (activation)": "inactive: 24.8%"},
      {"smiles": "O=C(CS(=O)CC(=O)N(c1cccc(F)c1)C(C(=O)NC1CCCCC1)c1ccco1)Nc1ccc(F)cc1", "note": "(centres undefined)", "growth rescue (activation)": "inactive: -7.73%"},
      {"smiles": "CCC(c1nnnn1C(C)(C)CC)N1CCN(c2ccccc2F)CC1", "note": "(centres undefined)", "growth rescue (activation)": "inactive: -2.93%"},
      {"smiles": "COc1ccc(S(=O)(=O)N2CCC(C(=O)NCc3ccncc3)CC2)cc1Cl", "growth rescue (activation)": "inactive: -8.24%"},
      {"smiles": "Cc1ccc(S(=O)(=O)N2CCOCC2)cc1NC(=O)COc1ccccc1Cc1ccccc1", "growth rescue (activation)": "inactive: 21.7%"},
      {"smiles": "NC(=O)c1ccsc1NC(=O)COC(=O)CCOc1ccccc1", "growth rescue (activation)": "inactive: 17%"},
      {"smiles": "CCN(CC#CCC(O)(c1ccccc1)c1ccccc1)C(C)C", "growth rescue (activation)": "inactive: -7.27%"},
      {"smiles": "O=C(CSc1nnc(-c2ccccn2)o1)Nc1ccccc1F", "growth rescue (activation)": "inactive: 6.51%"},
      {"smiles": "CCOC(=O)c1c(NC(=O)c2cccs2)sc(C(=O)N2CCOCC2)c1C", "growth rescue (activation)": "inactive: 33.3%"},
      {"smiles": "COc1cc(NC(=O)C2=C(N3CCOCC3)/C(=C\\c3ccc(Br)cc3)CC2)cc(OC)c1OC", "growth rescue (activation)": "inactive: -3.72%"},
      {"smiles": "CC(=O)c1cccc(NC(=O)C(C)OC(=O)c2cc(C)oc2C)c1", "note": "(centres undefined)", "growth rescue (activation)": "inactive: 10.3%"},
      {"smiles": "Cc1ccc(NC(=O)CN2C(=O)NC3(CCCc4ccccc43)C2=O)c(C)c1", "note": "(centres undefined)", "growth rescue (activation)": "inactive: -4.19%"},
      {"smiles": "O=C(Nc1ccc(-c2cn3ccccc3n2)cc1)c1cccs1", "growth rescue (activation)": "inactive: -21.2%"},
      {"smiles": "COc1ccc(COCC(O)CN(Cc2ccccc2)C(C)C)cc1OC", "note": "(centres undefined)", "growth rescue (activation)": "inactive: -2.7%"},
      {"smiles": "O=c1c2ccccc2nc(SCCN2CCOCC2)n1CCc1ccccc1", "growth rescue (activation)": "inactive: 9.49%"},
      {"smiles": "COc1ccc(NC(=O)c2ccc(-c3ccccc3)cc2)cc1NS(=O)(=O)c1ccc(F)cc1", "growth rescue (activation)": "inactive: 15.6%"},
      {"smiles": "CC(C)C(NC(=O)c1ccccc1F)C(=O)NCC(c1ccco1)N1CCCCC1", "note": "(centres undefined)", "growth rescue (activation)": "inactive: -6.91%"},
      {"smiles": "CC(O)(c1cccnc1)c1nc(-c2ccc3c(c2)OCO3)cs1", "note": "(centres undefined)", "growth rescue (activation)": "inactive: -1.37%"}
    ]}
  ]
}
